Some of the results follow.
target: T1, OsWOX13 (Oryza sativa, UniProt Q5QMM3 1-267); experiment: protein-binding microarray (RPBM); PBS, 2% BSA, 51.3 ng/ul salmon testes DNA, 50 uM zinc acetate, 200 nM TF, 25 C, 1 h; high values mean tight binding; conditions: protein: recombinant; tags: N-terminal polyhistidine and DsRed monomer fusion (pET32a); label: CyDye5-dUTP incorporated in the synthesized complementary strand; 3' TTTTT single-stranded linker to array surface; dsDNA, one strand shown
T1 sequence: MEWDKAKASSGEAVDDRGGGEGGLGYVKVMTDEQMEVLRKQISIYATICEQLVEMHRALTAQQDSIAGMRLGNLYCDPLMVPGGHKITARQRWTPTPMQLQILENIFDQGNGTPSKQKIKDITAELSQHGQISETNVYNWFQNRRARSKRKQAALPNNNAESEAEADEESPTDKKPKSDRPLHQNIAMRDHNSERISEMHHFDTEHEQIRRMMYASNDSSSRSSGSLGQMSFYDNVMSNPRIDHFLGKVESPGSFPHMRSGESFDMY
Method in brief: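 Transcription factors were made in E. coli BL21-CodonPlus as N-terminal fusions to a polyhistidine tag and DsRed, then purified on Ni–NTA. After primer extension with Cy5-dUTP and blocking with 2% BSA, a custom Agilent array was exposed for 1 h at 25 °C to 200 nM protein in PBS, 2% BSA, salmon testes DNA and 50 µM zinc acetate. Washed arrays were scanned on an Axon 4000B, and the binding signal is per-feature fluorescence intensity in arbitrary units.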

Sequence | binding signal
ATAAATCTGCCCACCATTTTCTCCCGCTCCAAATGCCCAACGGAGTCACCTAGTGCAG | 3210 fluorescence intensity (a.u.)
CCTGATTTTCCATTCCCACAATCCCACTGTCCTGACGAGTCGGAGTCACCTAGTGCAG | 27200 fluorescence intensity (a.u.)
AAATGTGATTTTATATTCCCTTTTGTATAAATTTGCAACACGGAGTCACCTAGTGCAG | 6280 fluorescence intensity (a.u.)
AAATAGTTAATACTTAATTAATCATGCAATAATACAAGTTCGGAGTCACCTAGTGCAG | 6900 fluorescence intensity (a.u.)
CAGACTATGCAATCACACACTGAATTGCTCCTCTTTCTTTCGGAGTCACCTAGTGCAG | 8990 fluorescence intensity (a.u.)
AGATGATAGATCAGAGTGAACATATTTGGACCATTAGATGCGGAGTCACCTAGTGCAG | 6720 fluorescence intensity (a.u.)
AATATGATAATCAAATTTAAATAGAGGAAGCAACCCTTTTCGGAGTCACCTAGTGCAG | 4330 fluorescence intensity (a.u.)
GACCCACTTCAATTAATCGACTAAATTTCAGTTTTCCAAGCGGAGTCACCTAGTGCAG | 15400 fluorescence intensity (a.u.)
CATGACATCGTCATTGACCGTGTCATCGTCAAGATGGATGCGGAGTCACCTAGTGCAG | 4420 fluorescence intensity (a.u.)
GCTGAAATTGCAGATGACCTGATGAACTTCTCCTCTGAAGCGGAGTCACCTAGTGCAG | 5930 fluorescence intensity (a.u.)
GCATCGTGAAGCCAATCAATTTAAATTTCTCATCTCGTCACGGAGTCACCTAGTGCAG | 20800 fluorescence intensity (a.u.)
ATGTGATTGCGCTCCGAGTTCTGCACTTACGCGAACAGTGCGGAGTCACCTAGTGCAG | 41500 fluorescence intensity (a.u.)
TTAATTTGTATACGAAACTGATATGTGGGCCCCACGGGGTCGGAGTCACCTAGTGCAG | 14000 fluorescence intensity (a.u.)
TGGAATGGGTTTTGTAATTAGTGGATATTTAATACCCCAACGGAGTCACCTAGTGCAG | 3440 fluorescence intensity (a.u.)
TTTGGTTGTTATTGATACATTTGACAAAATATATTTGGGACGGAGTCACCTAGTGCAG | 5110 fluorescence intensity (a.u.)
AAACTTGTTAATTATCAGGAAAACTTTGGCATTTTACATGCGGAGTCACCTAGTGCAG | 12300 fluorescence intensity (a.u.)
TATATTGGTCGATTAATTAAAGACGCAATTACATAATATTCGGAGTCACCTAGTGCAG | 5860 fluorescence intensity (a.u.)
CAAACGGCGTATAACTGACAGACTGTGGACGGCGATGATACGGAGTCACCTAGTGCAG | 3520 fluorescence intensity (a.u.)
ACGCTATAAAATTGATCATATATTGAAGGACGAAACAAATCGGAGTCACCTAGTGCAG | 4380 fluorescence intensity (a.u.)
CCTTCGATTATTGGCACGGATTGTTTATCCAGGTAAGACTCGGAGTCACCTAGTGCAG | 13300 fluorescence intensity (a.u.)
AGTTTCCTAATCTATTATATGATAGTACTCGGTCGGAGCTCGGAGTCACCTAGTGCAG | 3210 fluorescence intensity (a.u.)

Sequence | binding signal
AGGGAGAATTGATTATCAGCATGGCAATGGAGGAACATGCCGGAGTCACCTAGTGCAG | 21600 fluorescence intensity (a.u.)
TGAAATTAAATCTGACGAATTAATGCTGAATTGTAGCTGCCGGAGTCACCTAGTGCAG | 26000 fluorescence intensity (a.u.)
CGCATTGTACTAATTAATGACAGGAATGAGGATTATTATGCGGAGTCACCTAGTGCAG | 15400 fluorescence intensity (a.u.)
ATTTAAATTTGAATTTGAATTCAAATATTTTCCATATATACGGAGTCACCTAGTGCAG | 7130 fluorescence intensity (a.u.)
CCACTGGATTGAGGATTGCTTGAATTGACCATCAGATTTGCGGAGTCACCTAGTGCAG | 13200 fluorescence intensity (a.u.)
GACAAATATAATTACACCGTATAGTATTAATGTTTTGGTCCGGAGTCACCTAGTGCAG | 9100 fluorescence intensity (a.u.)
CAAATCAATCTTATTTAGATTTCTGATATGTTTACTGAACCGGAGTCACCTAGTGCAG | 22600 fluorescence intensity (a.u.)
ATTACTGATAATTTCCTATACAGATGATGTAGGAAACACACGGAGTCACCTAGTGCAG | 11300 fluorescence intensity (a.u.)
TCCTAATTTCACACCGTCTCTTCCTTGTAACCATCTGAAACGGAGTCACCTAGTGCAG | 6600 fluorescence intensity (a.u.)
GCAAATTGCCACGTAAGCGCCACGTCAGATCGAGACCGAGCGGAGTCACCTAGTGCAG | 4790 fluorescence intensity (a.u.)
GATAATTGACAAGATTGAACCATATGTGATGTATTATTTCCGGAGTCACCTAGTGCAG | 53200 fluorescence intensity (a.u.)
CTGATGGATAATAACACAAGCATCCATCAAGCCACTTGCTCGGAGTCACCTAGTGCAG | 14700 fluorescence intensity (a.u.)
CCATTCCATTAATCCATTGATAGCAACAGGGGTTATATTGCGGAGTCACCTAGTGCAG | 5680 fluorescence intensity (a.u.)
ATTCCTAATTTTAGTTATTCCTAAAATGTATATCGGTATGCGGAGTCACCTAGTGCAG | 6790 fluorescence intensity (a.u.)
CACAGATTATTCTCATCCATTAACACCACTTCTCATCTGACGGAGTCACCTAGTGCAG | 3480 fluorescence intensity (a.u.)
GCGATGATCGTGATTTCTCTCCCATAACCATATCGTACCACGGAGTCACCTAGTGCAG | 6010 fluorescence intensity (a.u.)
CTTAAAACAAATGATTGTTTACGTTCCGTCAATCATGCCCCGGAGTCACCTAGTGCAG | 21200 fluorescence intensity (a.u.)
ATGCAATAAATCATAAAATTATACATCTTAGTGAATCACACGGAGTCACCTAGTGCAG | 3660 fluorescence intensity (a.u.)
TGATCTAATTGAATGTCAACCCCTACTATATATATCTTACCGGAGTCACCTAGTGCAG | 26000 fluorescence intensity (a.u.)
TAAGAAATTAAATCACATTGGATGTTAATCAAAGAGCGAACGGAGTCACCTAGTGCAG | 6260 fluorescence intensity (a.u.)
ATCTCCTCAATCACCTTATCGTCAAACTCACCTTTAGTGACGGAGTCACCTAGTGCAG | 11700 fluorescence intensity (a.u.)

From article PMC7819943, “Rice protein-binding microarrays: a tool to detect cis-acting elements near promoter regions in rice”
